# Assay results as given in PubChem BioAssay AID504845 (National Center for Advancing Translational Sciences (NCATS), 2011).
# The campaign covered roughly 390,000 compounds. About 150 (0.038%) were called active. Roughly 3% stayed inconclusive and do not appear here. The call rests on the fitted dose curve; in most records, active means well fitted inhibition curve with a large enough effect; inconclusive means small, poorly fitted or top-dose-only effect; inactive means no such curve, though single readings can be large or run the other way. This is a selection; strong and weak results do not stand in their true shares. The source holds several records for some structures; these can differ, active in one and inactive in another.
# Biological target: Regulator of G-protein signaling 4 (Homo sapiens) (UniProt P49798)
# Chain of UniProt P49798 (P49798 whole entry, looked up): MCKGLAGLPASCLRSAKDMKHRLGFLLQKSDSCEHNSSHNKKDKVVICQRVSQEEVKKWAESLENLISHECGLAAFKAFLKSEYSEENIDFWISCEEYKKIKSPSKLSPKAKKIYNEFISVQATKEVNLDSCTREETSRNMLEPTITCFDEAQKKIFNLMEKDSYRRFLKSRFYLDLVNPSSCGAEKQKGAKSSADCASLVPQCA
# Experiment: Inhibitors of Regulator of G Protein Signaling (RGS) 4: qHTS; further: nearly all actives have a fitted effect of over 75% in size
# Settings: Transcreener GDP fluorescence polarization, RGS4-accelerated GTP hydrolysis; series mostly up to 114 µM; activity change, negative = inhibition: at the top concentration
# How it was run: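 MLSMR compounds (23 nl, pin-transferred) preincubated 10 min at room temperature with a 500nM (2x) first reagent, then RGS4 at 900nM (2x) plus Transcreener GDP mix added; fluorescence polarization (620/688 nm) read before and after 90 min at 30 °C.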
# On the % scale 0 is the no-effect control and ±100 the full control effect; potency means the concentration at half of the fitted maximal effect.
Compound,Potency,"activity change, negative = inhibition"
O=C1CC2(CCCC2)CC(=O)N1CCCCN1CCN(c2ncccn2)CC1,inactive,
Clc1cc(I)cc(Cl)c1NC1=NCCN1,inactive,
Cn1c[n+](C)cc1C(O)c1ccccc1 (configuration not stated),,inactive: -0.598%
C[C@H](CCC(=O)O)[C@H]1CC[C@H]2[C@@H]3[C@H](O)C[C@@H]4C[C@H](O)CC[C@]4(C)[C@H]3CC[C@]12C,,inactive: 17.9%
Cc1ccc(C[N+](C)(C)C)o1,,inactive: -198% [at 56.9 µM]
Cc1nccc2c1[nH]c1ccccc12,inactive,
CN1CC[C@@]2(C)c3cc(O)ccc3N(C)C12 (some centres not stated),active: 21.2 µM,
COc1ccc(OCC(=O)N2CCN(Cc3ccc(SC)cc3)CC2)cc1,,inactive: 14%
CN(N=O)c1cc(O)ccc1O,active: 23.8 µM,
NC(Cc1cc(O)c(O)cc1O)C(=O)O (configuration not stated),active: 2.99 µM,
CC(=O)OC1N=C(c2ccccc2)c2cc(Br)ccc2NC1=O (configuration not stated),,inactive: 56.5%
O=C(O)CC1OCC=C2CN3CCC45C6=CC(=O)C(=O)C([N+](=O)[O-])=C6NC4C1C2CC35 (configuration not stated),,inactive: -23.1% [at 56.9 µM]
O=c1oc(Cl)c(Cl)c2ccccc12,,inactive: -20.3%
C[C@]12N[C@H](Cc3ccccc31)c1ccccc12,inactive,
CN1CCCC1c1cccnc1 (configuration not stated),inactive,
CC(C)C[C@H]1C(=O)N2CCCC2[C@]2(O)O[C@](NC(=O)[C@@H]3C=C4c5cccc6[nH]c(Br)c(c56)C[C@H]4N(C)C3)(C(C)C)C(=O)N12 (some centres not stated),,inactive: 490% [at 56.9 µM]
Oc1ccccc1O,,inactive: 24.6%
COc1ccc(Cc2nccc3cc(OC)c(OC)cc23)cc1OC,,inactive: 10.6% [at 56.9 µM]
CCN(CC)C(=O)c1ccc(NC(=O)c2ccc(-c3nn(C)c(=O)c4ccccc34)cc2)cc1,,inactive: 2.68%
CNCCc1c[nH]c2ccc(O)cc12,,inactive: -13.3%
CC[C@@H]1C(=O)OC[C@@H]1Cc1cncn1C,,inactive: 7.74%
Fc1ccc(C(OCCN2CCN(CCCc3ccccc3)CC2)c2ccc(F)cc2)cc1,inactive,
CC(C)[C@@]1(NC(=O)[C@H]2CC3c4cccc5[nH]cc(c45)C[C@H]3N(C)C2)O[C@@]2(O)C3CCCN3C(=O)[C@@H](Cc3ccccc3)N2C1=O (some centres not stated),,inactive: 250% [at 56.9 µM]
CC(C)(C)NCC(O)c1cc(Cl)c(N)c(Cl)c1 (configuration not stated),,inactive: -0.783%
COC(=O)C1=CCCN(C)C1,inactive,
CCN1C[C@@]2(COC)C3[C@@H](OC)[C@H]4[C@@H]1[C@@]3(C1C[C@@]3(O)[C@H](OC(=O)c5ccccc5)C1[C@]4(OC(C)=O)[C@@H](O)[C@H]3OC)[C@@H](OC)C[C@H]2O (some centres not stated),,inactive: 1.74%

Compound,Potency,"activity change, negative = inhibition"
CC(C)[C@]1(O)[C@@H](OC(=O)c2ccc[nH]2)[C@@]2(O)[C@@]3(C)C[C@]4(O)O[C@@]5([C@H](O)[C@@H](C)CC[C@]35O)[C@@]2(O)C41C,,inactive: 10.3%
CN(C)C1C(=O)C(C(N)=O)=C(O)C2(O)C(=O)C3=C(O)c4c(O)cccc4C(C)(O)C3C(O)C12 (configuration not stated),,inactive: 22.4%
COc1ccc2c(c1)/C(=C/c1cnc[nH]1)C(=O)N2,,inactive: -2.96%
NCCc1c[nH]c2ccc(O)cc12,,inactive: -8.09%
COc1ccc2c3c1OC1C(=O)CC[C@@]4(O)[C@@H](C2)N(CC2CC2)CC[C@]314 (some centres not stated),,inactive: 13.9%
C=C1N2CCC(CC2)C1(O)c1ccc(C)c(C)c1 (configuration not stated),,inactive: 63.3%
CNCC[C@H](Oc1ccc(C(F)(F)F)cc1)c1ccccc1,,inactive: -7.15%
CCCN1CCc2cc(O)cc3c2[C@H]1Cc1ccc(O)c(O)c1-3,,inactive: -15.8%
Oc1ccc2c3c1OC1c4[nH]c5ccccc5c4C[C@@]4(O)C(C2)N(CC2CC2)CC[C@]314 (some centres not stated),,inactive: -2.18%
C[C@@]12N[C@@H](Cc3ccccc31)c1ccccc12,inactive,
Cc1nnc2ccc(-c3cccc(C(F)(F)F)c3)nn12,,inactive: 9.65%
CCC1C(=O)OCC1Cc1cncn1C (configuration not stated),inactive,
CCCN(CCC)[C@@H]1CCc2c(OC)cccc2[C@@H]1C,,inactive: 250% [at 56.9 µM]
C=CCN1C[C@@H](C)N(C(c2ccc(C(=O)N(CC)CC)cc2)c2cccc(OC)c2)C[C@@H]1C (some centres not stated),,inactive: -4.01%
CN1CC[C@@]2(C)c3cc(O)ccc3N(C)[C@@H]12,inactive,
CC(C)C[C@H](NP(=O)(O)O[C@@H]1O[C@@H](C)[C@H](O)[C@@H](O)[C@H]1O)C(=O)N[C@@H](Cc1c[nH]c2ccccc12)C(=O)O,,inactive: -13.4%
C[N+]1(C)CCC(OC(=O)C(c2ccccc2)c2ccccc2)CC1,,inactive: 0.174%
Cc1c2ccncc2c(C)c2c1[nH]c1ccccc12,inactive,
OCCN1CCN(CCCN2c3ccccc3Sc3ccc(C(F)(F)F)cc32)CC1,inactive,
C[N+]1(C)[C@@H]2CC[C@H]1CC(OC(=O)C(CO)c1ccccc1)C2 (some centres not stated),,inactive: -0.783%
CCCN1CCC[C@@H](c2cccc(O)c2)C1,,inactive: 13.6%
Cc1ccc(S(=O)(=O)N[C@@H](CCCCN)C(=O)CCl)cc1,,inactive: -37.5%
C=C(C)[C@@H]1CC[C@]2(C(=O)O)CC[C@]3(C)[C@H](CC[C@@H]4[C@@]5(C)CC[C@H](O)C(C)(C)[C@@H]5CC[C@]43C)[C@@H]12,,inactive: -16.1%
CCNC(=O)[C@H]1O[C@@H](n2cnc3c(N)ncnc32)[C@H](O)[C@@H]1O,inactive,
O=C(/C=C\c1ccc(Cl)cc1)N[C@@]12CCC(=O)[C@@H]3Oc4c(O)ccc5c4[C@@]31CCN(CC1CC1)[C@@H]2C5,,inactive: 102% [at 56.9 µM]
CC[C@H](Oc1ccc(Cl)cc1)C(=O)OC1C[C@H]2CC[C@@H](C1)N2C (some centres not stated),,inactive: 176% [at 56.9 µM]
